{"source": "paper PMC9911399", "about": "“Two distinct binding modes provide the RNA-binding protein RbFox with extraordinary sequence specificity”", "binders": {"B1": {"name": "ACCUGCG (DNA:RNA)", "RNA": "GGGAGACCGGAAUUCAGAUUGUCCACCUGCGUUAAAUCCCGUCGUAGCCACCA", "DNA 1": "CAATCTGAATTCCGGTCTCCC", "DNA 2": "TGGTGGCTACGACGGGATT"}, "B2": {"name": "AGGGAUU (DNA:RNA)", "RNA": "B1 RNA with C26G, C27G, U28G, G29A, C30U, G31U", "DNA 1": "CAATCTGAATTCCGGTCTCCC", "DNA 2": "TGGTGGCTACGACGGGATT"}, "B3": {"name": "CAUUAGC (DNA:RNA)", "RNA": "B1 RNA with A25C, C26A, C27U, G29A, C30G, G31C", "DNA 1": "CAATCTGAATTCCGGTCTCCC", "DNA 2": "TGGTGGCTACGACGGGATT"}, "B4": {"name": "AAAGGUC (DNA:RNA)", "RNA": "B1 RNA with C26A, C27A, U28G, C30U, G31C", "DNA 1": "CAATCTGAATTCCGGTCTCCC", "DNA 2": "TGGTGGCTACGACGGGATT"}, "B5": {"name": "CGAGACU (DNA:RNA)", "RNA": "B1 RNA with A25C, C26G, C27A, U28G, G29A, G31U", "DNA 1": "CAATCTGAATTCCGGTCTCCC", "DNA 2": "TGGTGGCTACGACGGGATT"}, "B6": {"name": "UGUUUCA (DNA:RNA)", "RNA": "B1 RNA with A25U, C26G, C27U, G29U, G31A", "DNA 1": "CAATCTGAATTCCGGTCTCCC", "DNA 2": "TGGTGGCTACGACGGGATT"}, "B7": {"name": "AGUCGCA (DNA:RNA)", "RNA": "B1 RNA with C26G, C27U, U28C, G31A", "DNA 1": "CAATCTGAATTCCGGTCTCCC", "DNA 2": "TGGTGGCTACGACGGGATT"}, "B8": {"name": "GUCUCCG (DNA:RNA)", "RNA": "B1 RNA with A25G, C26U, G29C", "DNA 1": "CAATCTGAATTCCGGTCTCCC", "DNA 2": "TGGTGGCTACGACGGGATT"}, "B9": {"name": "CGCGAAU (DNA:RNA)", "RNA": "B1 RNA with A25C, C26G, U28G, G29A, C30A, G31U", "DNA 1": "CAATCTGAATTCCGGTCTCCC", "DNA 2": "TGGTGGCTACGACGGGATT"}, "B10": {"name": "CGAAUGA (DNA:RNA)", "RNA": "GGGAGACCGGAAUUCAGAUUGUCCCGAAUGAUUAAAUCCCGUCGUAGCCACCA", "DNA 1": "CAATCTGAATTCCGGTCTCCC", "DNA 2": "TGGTGGCTACGACGGGATT"}, "B11": {"name": "UGCAGGG (DNA:RNA)", "RNA": "B1 RNA with A25U, C26G, U28A, C30G", "DNA 1": "CAATCTGAATTCCGGTCTCCC", "DNA 2": "TGGTGGCTACGACGGGATT"}, "B12": {"name": "GGAAGCA (DNA:RNA)", "RNA": "B10 RNA with C25G, U29G, G30C", "DNA 1": "CAATCTGAATTCCGGTCTCCC", "DNA 2": "TGGTGGCTACGACGGGATT"}, "B13": {"name": "GCAUAUU (DNA:RNA)", "RNA": "B1 RNA with A25G, C27A, G29A, C30U, G31U", "DNA 1": "CAATCTGAATTCCGGTCTCCC", "DNA 2": "TGGTGGCTACGACGGGATT"}, "B14": {"name": "GGUAUGU (DNA:RNA)", "RNA": "B10 RNA with C25G, A27U, A31U", "DNA 1": "CAATCTGAATTCCGGTCTCCC", "DNA 2": "TGGTGGCTACGACGGGATT"}, "B15": {"name": "GUUAAUG (DNA:RNA)", "RNA": "B1 RNA with A25G, C26U, C27U, U28A, G29A, C30U", "DNA 1": "CAATCTGAATTCCGGTCTCCC", "DNA 2": "TGGTGGCTACGACGGGATT"}, "B16": {"name": "UCUGAUA (DNA:RNA)", "RNA": "B1 RNA with A25U, C27U, U28G, G29A, C30U, G31A", "DNA 1": "CAATCTGAATTCCGGTCTCCC", "DNA 2": "TGGTGGCTACGACGGGATT"}, "B17": {"name": "AUUCAGG (DNA:RNA)", "RNA": "B1 RNA with C26U, C27U, U28C, G29A, C30G", "DNA 1": "CAATCTGAATTCCGGTCTCCC", "DNA 2": "TGGTGGCTACGACGGGATT"}, "B18": {"name": "GUUACUC (DNA:RNA)", "RNA": "B10 RNA with C25G, G26U, A27U, U29C, G30U, A31C", "DNA 1": "CAATCTGAATTCCGGTCTCCC", "DNA 2": "TGGTGGCTACGACGGGATT"}, "B19": {"name": "AAGGUUU (DNA:RNA)", "RNA": "B1 RNA with C26A, C27G, U28G, G29U, C30U, G31U", "DNA 1": "CAATCTGAATTCCGGTCTCCC", "DNA 2": "TGGTGGCTACGACGGGATT"}, "B20": {"name": "GUGCUUA (DNA:RNA)", "RNA": "B10 RNA with C25G, G26U, A27G, A28C, G30U", "DNA 1": "CAATCTGAATTCCGGTCTCCC", "DNA 2": "TGGTGGCTACGACGGGATT"}}, "note": "Changes are numbered by the printed parent chain; changes in the protein carry UniProt numbers. Some of the results follow.", "data": [{"target": "T1, RBFOX1 RRM RbFoxmut (Fox-RRM*) (Homo sapiens, UniProt Q9NWB1 109-208, R118D;E147R;N151S;E152T)", "T1 sequence": "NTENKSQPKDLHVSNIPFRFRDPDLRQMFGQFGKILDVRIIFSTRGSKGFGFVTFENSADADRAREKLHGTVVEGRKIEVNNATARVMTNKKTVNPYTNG", "assay": "EMSA; HiTS-Eq, 1 nM pool, 10 min; buffer printed only for the single-RNA assays: 10 mM Tris pH 7.5, 150 mM NaCl, 3.4 mM EDTA, 0.001% NP-40, 30 C", "conditions": "tags: His6 N-terminal (pET28a); label: 5' 32P", "outline": "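Purified wild-type or mutant RbFox RRM at increasing concentrations was equilibrated with 1 nM of 5′-radiolabelled RNA carrying 7 randomized nucleotides for 10 min in 50 µL. Unbound RNA was separated by 8% native PAGE and sequenced. Relative association constants came from read-count changes of each RNA species compared with the control reaction, normalised to the cognate motif.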", "values": [{"binder": "B1", "binding signal": "0.117 KA relative to UGCAUGU"}, {"binder": "B2", "binding signal": "0.113 KA relative to UGCAUGU"}, {"binder": "B3", "binding signal": "0.0975 KA relative to UGCAUGU"}, {"binder": "B4", "binding signal": "0.0652 KA relative to UGCAUGU"}, {"binder": "B5", "binding signal": "0.0834 KA relative to UGCAUGU"}, {"binder": "B6", "binding signal": "0.155 KA relative to UGCAUGU"}, {"binder": "B7", "binding signal": "0.133 KA relative to UGCAUGU"}, {"binder": "B8", "binding signal": "0.142 KA relative to UGCAUGU"}, {"binder": "B9", "binding signal": "0.0891 KA relative to UGCAUGU"}, {"binder": "B10", "binding signal": "1.04 KA relative to UGCAUGU"}, {"binder": "B11", "binding signal": "0.091 KA relative to UGCAUGU"}, {"binder": "B12", "binding signal": "0.0999 KA relative to UGCAUGU"}, {"binder": "B13", "binding signal": "0.142 KA relative to UGCAUGU"}, {"binder": "B14", "binding signal": "0.662 KA relative to UGCAUGU"}, {"binder": "B15", "binding signal": "0.138 KA relative to UGCAUGU"}, {"binder": "B16", "binding signal": "0.0872 KA relative to UGCAUGU"}, {"binder": "B17", "binding signal": "0.0936 KA relative to UGCAUGU"}, {"binder": "B18", "binding signal": "0.0779 KA relative to UGCAUGU"}, {"binder": "B19", "binding signal": "0.0775 KA relative to UGCAUGU"}, {"binder": "B20", "binding signal": "0.133 KA relative to UGCAUGU"}]}]}
